± gives the standard deviation of the averaged measurements. Growth of baker's yeast expressing single-residue variants of Pneumocystis jirovecii dihydrofolate reductase in 8.8 or 44 µM methotrexate (about 75% and 90% inhibition of the wild type). Selection coefficient per generation; 0 = like wild type, above 0 = less sensitive, below 0 = more sensitive or loss of function. No active / inactive call per row; the paper calls resistant above 0.220 (8.8 µM) or 0.243 (44 µM) together with a significance test. At 44 µM about 15% of codons end with one read or none, so the lowest values are floors (replicate rank correlation 0.74; 0.94 at 8.8 µM).
B1: UniProt A0EPZ9; numbered along this chain (parent)
chain: MDWQKSLTLIVALTLSRGIGLKNDLPWKLKSDMMFFSRVTSGLLVTRSTGQMNVVLMGRKTWESLPAHSRPLKNRINVVISRQEVLDLGGGAYHARSLDDALALLSQIYDSTSKIQLNRVFVIGGGELCKAAMEHSRLNRIIATVIHNEVDCDVFFPIDFRSSQSCLPWRKQDHSVLEAWVGSKVPQGKINENGFIYEFEMWIRDI

Variants of: B1
Test: selection coefficient against synonymous wild-type codons (log2 per generation); higher = faster growth than wild type
Conditions: with Saccharomyces cerevisiae carrying the variant on a plasmid
Description: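 Pooled growth of yeast carrying single-residue variants of P. jirovecii dihydrofolate reductase (own DFR1 gene intact), two passages at 30 °C, three cultures, sequenced before and after. Codons with under 15 starting reads are left out; codons of one change are averaged.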

Row | Variant | selection coefficient against synonymous wild-type codons (log2) (methotrexate 8.8 µM) | selection coefficient against synonymous wild-type codons (log2) (methotrexate 44 µM)
1 | MDWQKSLTLIVALTLSRGIGLKNDLPWKLKSDMMFFSRVTSGLLVTRSTGQMNVVLMGRETWESLPAHSRPLKNRINVVISRQEVLDLGGGAYHARSLDDALALLSQIYDSTSKIQLNRVFVIGGGELCKAAMEHSRLNRIIATVIHNEVDCDVFFPIDFRSSQSCLPWRKQDHSVLEAWVGSKVPQGKINENGFIYEFEMWIRDI [K60E] | 0.232 ± 0.017 | 0.229 ± 0.02
2 | MDWQKSLTLIVALTLSRGIGLKNDLPWKLKSDMMFFSRVTSGLLVTRSTGQMNVVLMGRKTWESLPAHSRPLKNRINVVISRQEVLDLGGGAYHARSLDDALALLSQIYDSTSKIQLNRVFVIGGGELCKAAMEHSRLNRRIATVIHNEVDCDVFFPIDFRSSQSCLPWRKQDHSVLEAWVGSKVPQGKINENGFIYEFEMWIRDI [I141R] | -0.708 ± 0.1 | -0.257 ± 0.069
3 | MDWQKSLTLIVALTLSRGIGLKNDLPWKLKSDMMFFSRVTSGLLVTRSTGQMNVVLMGRKTWESLPAHYRPLKNRINVVISRQEVLDLGGGAYHARSLDDALALLSQIYDSTSKIQLNRVFVIGGGELCKAAMEHSRLNRIIATVIHNEVDCDVFFPIDFRSSQSCLPWRKQDHSVLEAWVGSKVPQGKINENGFIYEFEMWIRDI [S69Y] | 0.225 ± 0.092 | 0.286 ± 0.053
4 | MDWQKSLTLIVALTLSRGIGLKNDLPWKLKSDMMFFSRVTSGLLVTRSTGQMNVVLMGRKTWESLPAHSRPLKNRINVVISRQEVLDLGGGAYHARSLDDALALLSQIYDSTSKIQLNRVFVIGGGELCKAAMEHSRLNRIIATVDHNEVDCDVFFPIDFRSSQSCLPWRKQDHSVLEAWVGSKVPQGKINENGFIYEFEMWIRDI [I146D] | -0.511 ± 0.096 | -0.351 ± 0.025
5 | MDWQKSLTLIVALTLSRGIGLKNDLPWKLKSDMMFFSRVTSGLLVTRSTGQMNVVLMGRKTWESLPAHSRPLKNRINVVISNQEVLDLGGGAYHARSLDDALALLSQIYDSTSKIQLNRVFVIGGGELCKAAMEHSRLNRIIATVIHNEVDCDVFFPIDFRSSQSCLPWRKQDHSVLEAWVGSKVPQGKINENGFIYEFEMWIRDI [R82N] | -0.136 ± 0.032 | -0.179 ± 0.063
6 | MDWQKSLTLIVALTLSRGICLKNDLPWKLKSDMMFFSRVTSGLLVTRSTGQMNVVLMGRKTWESLPAHSRPLKNRINVVISRQEVLDLGGGAYHARSLDDALALLSQIYDSTSKIQLNRVFVIGGGELCKAAMEHSRLNRIIATVIHNEVDCDVFFPIDFRSSQSCLPWRKQDHSVLEAWVGSKVPQGKINENGFIYEFEMWIRDI [G20C] | -0.396 ± 0.085 | -0.293 ± 0.14
7 | MDWSKSLTLIVALTLSRGIGLKNDLPWKLKSDMMFFSRVTSGLLVTRSTGQMNVVLMGRKTWESLPAHSRPLKNRINVVISRQEVLDLGGGAYHARSLDDALALLSQIYDSTSKIQLNRVFVIGGGELCKAAMEHSRLNRIIATVIHNEVDCDVFFPIDFRSSQSCLPWRKQDHSVLEAWVGSKVPQGKINENGFIYEFEMWIRDI [Q4S] | -0.122 ± 0.072 | -0.0722 ± 0.12
8 | MDWQKSLTLIVALTLSRGIGLKNDLPWKLKSDMMFFSRVTSGLLVTRSTGQMNVVLMGRKTWESLPAHSRPLKNRINVVISRQEVLDLGGGAYHARSLDDALALLSQIYDSTSKIQLNRVFVIGGGELCKAAMEHSRLNRIIATVIHNEVDCDVFFPEDFRSSQSCLPWRKQDHSVLEAWVGSKVPQGKINENGFIYEFEMWIRDI [I158E] | 0.0553 ± 0.053 | 0.0299 ± 0.045
9 | MDWQKSLTLIVALTLSRGIGLKNDLPWKLKSDMMFFSRVKSGLLVTRSTGQMNVVLMGRKTWESLPAHSRPLKNRINVVISRQEVLDLGGGAYHARSLDDALALLSQIYDSTSKIQLNRVFVIGGGELCKAAMEHSRLNRIIATVIHNEVDCDVFFPIDFRSSQSCLPWRKQDHSVLEAWVGSKVPQGKINENGFIYEFEMWIRDI [T40K] | -0.527 ± 0.095 | -0.322 ± 0.11
10 | MDWQKSLTLIVALTLSRGIGLKNDLPWKLKSDMMFFSRVTSGLLVTRSTGQMNVVLMGRKTWESLPAHSRPLKNRINVVISRSEVLDLGGGAYHARSLDDALALLSQIYDSTSKIQLNRVFVIGGGELCKAAMEHSRLNRIIATVIHNEVDCDVFFPIDFRSSQSCLPWRKQDHSVLEAWVGSKVPQGKINENGFIYEFEMWIRDI [Q83S] | -0.129 ± 0.034 | -0.1 ± 0.28
11 | MDWQKSLTLIVALTLSRGIGLKNDLPWKLKSDMMFFSRVTSGLLVTRSTGQMNVVLMGRKTWESLPAHSRGLKNRINVVISRQEVLDLGGGAYHARSLDDALALLSQIYDSTSKIQLNRVFVIGGGELCKAAMEHSRLNRIIATVIHNEVDCDVFFPIDFRSSQSCLPWRKQDHSVLEAWVGSKVPQGKINENGFIYEFEMWIRDI [P71G] | 0.265 ± 0.034 | 0.304 ± 0.041
12 | MDWQKYLTLIVALTLSRGIGLKNDLPWKLKSDMMFFSRVTSGLLVTRSTGQMNVVLMGRKTWESLPAHSRPLKNRINVVISRQEVLDLGGGAYHARSLDDALALLSQIYDSTSKIQLNRVFVIGGGELCKAAMEHSRLNRIIATVIHNEVDCDVFFPIDFRSSQSCLPWRKQDHSVLEAWVGSKVPQGKINENGFIYEFEMWIRDI [S6Y] | -0.0843 ± 0.16 | -0.0966 ± 0.18
13 | MDWQKSLTLIVALTLSRGIGLKNDLPWKLKSDMMFFSRVTSGLLVTRSTGQMNVVLMGRKTWESLPAHSRPLKNRINVVISRQEVLDLGGGAYHARSLDDALALLSQNYDSTSKIQLNRVFVIGGGELCKAAMEHSRLNRIIATVIHNEVDCDVFFPIDFRSSQSCLPWRKQDHSVLEAWVGSKVPQGKINENGFIYEFEMWIRDI [I108N] | -0.416 ± 0.13 | -0.104 ± 0.1
14 | MDWQKSLTLIVALTLSRGIGLKNDLPWKLKSDMMFFSRVTSGLLVTRSTGQMNVVLMGRKTWESLPAHSRPLKNRINVVISRQEVLDLGGGAYHARSLDDALALLSQIYDSTSKIQLNRVFVIGGGELCKANMEHSRLNRIIATVIHNEVDCDVFFPIDFRSSQSCLPWRKQDHSVLEAWVGSKVPQGKINENGFIYEFEMWIRDI [A132N] | -0.744 ± 0.054 | -0.24 ± 0.023
15 | MDWQKSLTLIVALTLSRGIGLKNDLPWKLKSDMMFFSRVTSGLLVTRSTGQMNVVLMGRKTWESLPAWSRPLKNRINVVISRQEVLDLGGGAYHARSLDDALALLSQIYDSTSKIQLNRVFVIGGGELCKAAMEHSRLNRIIATVIHNEVDCDVFFPIDFRSSQSCLPWRKQDHSVLEAWVGSKVPQGKINENGFIYEFEMWIRDI [H68W] | -0.0604 ± 0.032 | -0.104 ± 0.056

From the supplement of paper PMC11125491
